Among the data in PMC7819943, “Rice protein-binding microarrays: a tool to detect cis-acting elements near promoter regions in rice” are binding signal values, retold here.

Some of the results follow.

This test deals with T1, OsWOX13 (Oryza sativa, UniProt Q5QMM3 1-267).
T1 sequence: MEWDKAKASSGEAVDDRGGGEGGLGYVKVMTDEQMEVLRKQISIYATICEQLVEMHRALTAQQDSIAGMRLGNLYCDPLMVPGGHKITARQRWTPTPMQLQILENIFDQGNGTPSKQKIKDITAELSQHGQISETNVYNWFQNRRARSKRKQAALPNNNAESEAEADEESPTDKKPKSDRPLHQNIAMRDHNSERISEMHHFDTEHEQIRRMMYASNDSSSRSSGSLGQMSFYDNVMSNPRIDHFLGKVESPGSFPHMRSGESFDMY
In words: protein-binding microarray (RPBM); PBS, 2% BSA, 51.3 ng/ul salmon testes DNA, 50 uM zinc acetate, 200 nM TF, 25 C, 1 h; high values mean tight binding. Conditions: protein: recombinant; tags: N-terminal polyhistidine and DsRed monomer fusion (pET32a); label: CyDye5-dUTP incorporated in the synthesized complementary strand; 3' TTTTT single-stranded linker to array surface; dsDNA, one strand shown. Summed up: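 In PBS with 2% BSA, salmon testes DNA and 50 µM zinc acetate, 200 nM protein was incubated on a custom Agilent array at 25 °C for 1 h and then washed off. The array had been made double-stranded by primer extension with Cy5-dUTP and blocked with 2% BSA. The proteins were transcription factors fused N-terminally to polyhistidine and DsRed, expressed in E. coli BL21-CodonPlus and purified on Ni–NTA. The binding signal is per-feature fluorescence intensity (arbitrary units) from an Axon 4000B scanner.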
Take “ACCTTGATTTTCATGATACTTTATTTTCTTCAACATCGTACGGAGTCACCTAGTGCAG”: the binding signal was 16600 fluorescence intensity (a.u.). As for “TTGAGCCTAATTACGCCATGATTTGACAATGTGATGCTACCGGAGTCACCTAGTGCAG”, the figure is 40200 fluorescence intensity (a.u.); as for “TTCCCAATCTCCTCAATCACCTTCTCCTCAAACACACCCTCGGAGTCACCTAGTGCAG”, 25400 fluorescence intensity (a.u.); as for “AGATATAATTTGATAAATTTACATCATCAGTGAATCAATCCGGAGTCACCTAGTGCAG”, 25000 fluorescence intensity (a.u.).

Take “CCCAGTTTGATCACAACCTAATCAAGAGCTTAATTTAGAACGGAGTCACCTAGTGCAG”: the binding signal was 6120 fluorescence intensity (a.u.). Consider “TTCTGTAAATCTGTAATTCTGAATTGTCTGCAAATTTGCACGGAGTCACCTAGTGCAG”, for which the binding signal was 3720 fluorescence intensity (a.u.). For the sequence “GCAATCAATAATGTACAGTATAACTCTGTTGACTTTTGAACGGAGTCACCTAGTGCAG”, the binding signal was 11800 fluorescence intensity (a.u.).

For the sequence “ATAGATGCTAATTGCATAGGAGTAACTTACAAGGGACTTTCGGAGTCACCTAGTGCAG”, the binding signal is 6360 fluorescence intensity (a.u.).

Turning to “CCCTGATGATCTATCGTCACTGACAGAGCTCACACTGCTGCGGAGTCACCTAGTGCAG”, the binding signal is 15300 fluorescence intensity (a.u.). Turning to “ACAGACTTAACAATAATTTTATCATAGATATAGATTAAGTCGGAGTCACCTAGTGCAG”, the binding signal was 11300 fluorescence intensity (a.u.). Take “AACTACAAAATTGATTTCGATTTGATTGCTCCTAAACGTTCGGAGTCACCTAGTGCAG”: the binding signal is 36900 fluorescence intensity (a.u.).

Regarding “GATCGAGTTAATTAATCTCTATCCCGCATGTAATATAATGCGGAGTCACCTAGTGCAG”, the binding signal was 10500 fluorescence intensity (a.u.). Take “TAAATTTAACATTAAATATACTATGATAATATGTTTGTTTCGGAGTCACCTAGTGCAG”: the binding signal was 7030 fluorescence intensity (a.u.).

For the sequence “TAAATTATCATAAACCACATTAATTTACTTAATCTGATATCGGAGTCACCTAGTGCAG”, the binding signal was 17600 fluorescence intensity (a.u.).

Consider “ATGACTGCACTTAAAATGGGATGGAGGGAGTAGTAGACATCGGAGTCACCTAGTGCAG”, for which the binding signal is 3700 fluorescence intensity (a.u.). As for “TGTCCCTGTCTATTTTACCTCTATATCGCACGTACTCCGGCGGAGTCACCTAGTGCAG”, the figure is 3710 fluorescence intensity (a.u.). For the sequence “TGTTAAATTTAGGGAGAACTTTACTCCACCAGTAGATTGGCGGAGTCACCTAGTGCAG”, the binding signal is 5050 fluorescence intensity (a.u.).

Consider “TCAATCAATCGATCGATCAATCAATCGTGCAAGGGAAGAACGGAGTCACCTAGTGCAG”, for which the binding signal was 18800 fluorescence intensity (a.u.).

Take “CAGCCATATGATTAGTGCTCCGTATTACTTAGAATCAAGCCGGAGTCACCTAGTGCAG”: the binding signal was 13200 fluorescence intensity (a.u.). With “TCATCAATCATCCGTGGCACCAGAACACCAAGATTGCGTCCGGAGTCACCTAGTGCAG”, the binding signal is 23300 fluorescence intensity (a.u.). Turning to “CTACGTTTAATATTTATAATTAGTGTTCAAACATTCGATACGGAGTCACCTAGTGCAG”, the binding signal was 3340 fluorescence intensity (a.u.). “TTCAGAATTATATTTCTAATCAGCATGGCCAGTGGCGAATCGGAGTCACCTAGTGCAG”: the binding signal was 5900 fluorescence intensity (a.u.). As to “TCGGTAACCATATTTTGATTGGTTTGACAGGGTTCCATTACGGAGTCACCTAGTGCAG”, the binding signal is 21400 fluorescence intensity (a.u.). Turning to “TGGACCATGTGATTGTCAATGACAATGACCCATCATTGATCGGAGTCACCTAGTGCAG”, the binding signal is 14400 fluorescence intensity (a.u.). Consider “TTAAATGGAGGAGCCAATCTATCTGGCCTTTTCTCTCCTCCGGAGTCACCTAGTGCAG”, for which the binding signal was 6950 fluorescence intensity (a.u.). To “TCAAAATTAGTCCAACAATTGAGGTTAACATTCTATCTCACGGAGTCACCTAGTGCAG” belongs 6500 fluorescence intensity (a.u.); to “CAAATTTATTGAGCTCAATTAATCCGTCATTAGCAAATGTCGGAGTCACCTAGTGCAG”, 16800 fluorescence intensity (a.u.). Consider “CGATGATTCTTCAATTAATTACACAGCTCTAGTGTGTAAACGGAGTCACCTAGTGCAG”, for which the binding signal was 42100 fluorescence intensity (a.u.). Regarding “TTTGTTGCTTTACTTGGGAGATTGATCGCTAAACGAGTCACGGAGTCACCTAGTGCAG”, the binding signal is 3150 fluorescence intensity (a.u.). Consider “AAGCATGATTAGCATATAACTAATCGAGTATTTGTTATTACGGAGTCACCTAGTGCAG”, for which the binding signal is 21400 fluorescence intensity (a.u.). As to “CGCTTATAAATTAATCCCGGGCATGTACACGCGAGAACGGCGGAGTCACCTAGTGCAG”, the binding signal is 5780 fluorescence intensity (a.u.).

In the case of “AATTTTCTTATGATTAGCATTTCTATTGCTATTAGATGATCGGAGTCACCTAGTGCAG”, the binding signal is 8930 fluorescence intensity (a.u.). Take “ATAGATTAATGGGCATTAATAGTGAAAGTTTGAATTATGACGGAGTCACCTAGTGCAG”: the binding signal was 16900 fluorescence intensity (a.u.).

Regarding “TCAGATTAGTTGACTAGCAAGCTACTCCTAGTACAGGTTACGGAGTCACCTAGTGCAG”, the binding signal is 6290 fluorescence intensity (a.u.). “AATTAATCAACTAGTATTATAAAGTTTGAAAAGGTTGGTTCGGAGTCACCTAGTGCAG”: the binding signal was 3510 fluorescence intensity (a.u.). To “CATTAATCACCCTTCATCATTAATTAATTTTCCTCGACAACGGAGTCACCTAGTGCAG” belongs 18300 fluorescence intensity (a.u.); to “TAGTAATTAGCCTAGTAACCCGTCATGATTAAGCCAGATTCGGAGTCACCTAGTGCAG”, 17600 fluorescence intensity (a.u.); to “GGTAGCACTCAATTAAAATAATCCCTTGAGAGCATGCAATCGGAGTCACCTAGTGCAG”, 3250 fluorescence intensity (a.u.). With “TAAATTTAATGAAGCTAATTTAGTGTTGTAGATGTTGCTACGGAGTCACCTAGTGCAG”, the binding signal was 23300 fluorescence intensity (a.u.). For the sequence “TCTGCAATTTAACACTGACTGACGTGTACCCAGCGAGTAGCGGAGTCACCTAGTGCAG”, the binding signal was 11700 fluorescence intensity (a.u.). As for “TTTAGAGCACCAATCATAACCCATAAATCCGTGGGCTACTCGGAGTCACCTAGTGCAG”, the figure is 11700 fluorescence intensity (a.u.). With “ATGGATTAATTAGGCTCAAAAGATTCATTTCGCAATTCTTCGGAGTCACCTAGTGCAG”, the binding signal was 20000 fluorescence intensity (a.u.). Consider “GTGAATTGACCGTACATGATATTACCACTTTACCAGGCGTCGGAGTCACCTAGTGCAG”, for which the binding signal was 10500 fluorescence intensity (a.u.).

Consider “GTATGACAGGTTGGACCATATATTAATAGTGTAGTATATACGGAGTCACCTAGTGCAG”, for which the binding signal is 6520 fluorescence intensity (a.u.). Turning to “TCTCTGATTGCCACTATGCTTCTCATTGCTTCTCTAAAGACGGAGTCACCTAGTGCAG”, the binding signal is 36000 fluorescence intensity (a.u.). To “TTTGTTAATTATACTAGTTTAGTAGTATCATTACCACGCTCGGAGTCACCTAGTGCAG” belongs 8660 fluorescence intensity (a.u.). For the sequence “CTTTGACTAAATCAAAACGTCTTATAACCTGAAACGAAGGCGGAGTCACCTAGTGCAG”, the binding signal was 12400 fluorescence intensity (a.u.). For “CAAAATTTGCTAAATTAAACCACACATATGATTTTATATGCGGAGTCACCTAGTGCAG”, the binding signal was 20500 fluorescence intensity (a.u.). On to “TCCTGATAACATGTCCTAATCAAGTTTTGTGAAAGCTCAGCGGAGTCACCTAGTGCAG”, for which the binding signal was 11400 fluorescence intensity (a.u.). “GTTAATTAGATGGGCTTATCCTACACCAAAATTAGCAGCGCGGAGTCACCTAGTGCAG”: the binding signal was 42400 fluorescence intensity (a.u.). Consider “TTACAAATTTAAAGTTGAAAATTCATCGATAAGTACCAGCCGGAGTCACCTAGTGCAG”, for which the binding signal is 4120 fluorescence intensity (a.u.). On to “TTTCCATCATTGATCAAGGCATAAATCAATGGCTCATATTCGGAGTCACCTAGTGCAG”, for which the binding signal is 10400 fluorescence intensity (a.u.).

For “CAGTATATATAATTAATTAATTAATCAAATTAACACAAGCCGGAGTCACCTAGTGCAG”, the binding signal is 31500 fluorescence intensity (a.u.). As for “GTACAGTGTACTTGATTGAGTTGACAGTCATACTCTACTACGGAGTCACCTAGTGCAG”, the binding signal is 18500 fluorescence intensity (a.u.).
